In the supplement of paper PMC3334620:
Whole data set: some 33,000 sequences, median “E-score (-0.5 to 0.5)” near -0.054, cut for the highest 2% near 0.35. This is one part of the list.

Molecular target: T1, Stb5 (UniProt P38699)
T1 sequence: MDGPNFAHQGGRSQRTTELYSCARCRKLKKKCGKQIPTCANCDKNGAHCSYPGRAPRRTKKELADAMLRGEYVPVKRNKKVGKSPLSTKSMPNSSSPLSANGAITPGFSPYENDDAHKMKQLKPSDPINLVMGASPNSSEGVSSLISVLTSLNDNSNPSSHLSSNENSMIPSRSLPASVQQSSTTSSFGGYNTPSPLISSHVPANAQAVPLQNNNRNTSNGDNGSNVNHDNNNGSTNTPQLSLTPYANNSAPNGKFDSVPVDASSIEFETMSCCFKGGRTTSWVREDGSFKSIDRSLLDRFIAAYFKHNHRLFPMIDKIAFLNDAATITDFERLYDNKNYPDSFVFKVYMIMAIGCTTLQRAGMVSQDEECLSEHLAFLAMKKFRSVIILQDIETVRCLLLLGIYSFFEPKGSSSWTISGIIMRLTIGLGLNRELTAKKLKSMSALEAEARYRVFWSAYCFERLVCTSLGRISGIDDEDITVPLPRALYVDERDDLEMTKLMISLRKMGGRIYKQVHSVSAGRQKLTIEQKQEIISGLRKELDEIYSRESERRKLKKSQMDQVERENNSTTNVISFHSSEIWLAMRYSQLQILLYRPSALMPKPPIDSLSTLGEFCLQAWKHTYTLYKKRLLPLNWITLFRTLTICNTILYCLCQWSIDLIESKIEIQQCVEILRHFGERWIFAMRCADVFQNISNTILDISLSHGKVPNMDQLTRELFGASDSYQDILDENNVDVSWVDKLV
Experiment: PBM E-score (8-mer binding enrichment) (E-score (-0.5 to 0.5)); higher = stronger / more preferred TF binding; most listed sequences are background and not binding sites
Conditions: protein concentration: 200 nM; construct: GST-full length
Outline: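 Each ungapped eight-base word and its reverse complement, pooled, received an E-score from the Universal PBM Analysis Suite. Underlying scans, normalised with masliner, recorded fluorescent anti-GST bound to GST-tagged yeast transcription factors. These were applied at about 100-200 nM to universal all-10-mer Agilent arrays double-stranded by primer extension.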

Sequence | PBM E-score
CAAGCTTA | 0.0928
GCCGGCCC | 0.241
CAATCAGG | -0.124
TATGACAA | -0.104
CGTAAGTC | 0.0376
ACCATTCG | -0.101
ATTGCAAA | -0.0132
ACCTACCT | 0.106
ATGACGCC | 0.229
AAATATGA | -0.0569
ATCGAACG | -0.0952
ACATCTGC | -0.183
CTGAGGAC | 0.0844
GGTGTCGA | -0.0848
TTGTTAAA | 0.106
CATAATCC | 0.0435
AGAACAGG | -0.105
GCGCAGTA | -0.078
ACTACGTC | -0.0346
GATCGTCC | 0.0239
ATATCTTC | -0.00676
GAATGGGA | -0.182

Sequence | PBM E-score
CTTGCCCC | -0.0462
CCGAATTA | 0.142
CACGGTTC | -0.25
AAGCACCC | -0.117
ACAACGCG | -0.0497
CGATCCTA | 0.158
AGGGAACC | -0.0168
GAGCTCGC | -0.0819
GAGTGTAA | -0.257
AAGGAAAA | -0.196
CCAGTATC | -0.132
AGGGCAAT | -0.117
AAGGCGGC | 0.151
CCAATCAA | -0.0742
AGGGTAAA | -0.199
AACATATG | -0.0158
ACATAGTA | -0.0424
AACTTAAT | -0.00794
CCTTGAGA | 0.0734
CTATGCGA | -0.179
CATGACCA | -0.378
ATAATCAT | -0.0972

Sequence | PBM E-score
ACCAGATC | -0.153
GGCTAGCA | 0.109
CCCGTGCG | 0.188
GCCACTTA | -0.0133
ATCTATTG | -0.0544
TACGACTA | -0.0994
GGGAATGA | -0.0101
GAGGTGCC | -0.0435
AGACGCGG | 0.159
CCCCACTA | -0.079
CAGCATAC | -0.0788
CAGAGCTC | -0.0323
GCACCAAC | 0.0435
GCGCGACA | 0.00575
GAGTTACC | -0.0338
ACGGTTCA | -0.187
AGAGATCT | -0.187
AGGCACAA | -0.13
GAACCGTC | 0.0721
ACGGGCTC | 0.196
AAGCTGCA | -0.00205
AAGCCTCT | -0.318

Sequence | PBM E-score
AAGGTGAG | -0.185
CAAATTGA | -0.259
TACGAACA | -0.0597
CAACCTCA | -0.309
CTACTGCC | 0.00476
GCCCTTGA | -0.284
CGGAAGAA | 0.093
TAGATGAA | 0.0599
CCCGCAAC | 0.266
AAAAACTG | -0.0746
GAGGCTAA | -0.0247
CGGCAGGA | 0.134
CGGTGGCC | 0.157
ACGCTAGT | 0.156
ACTGAGTG | -0.137
GAAGTGTC | -0.0684
AGGTTTCA | 0.058
ACTAAGCA | -0.244
CCTGCTGC | -0.209
AATCACTC | -0.228
CATTCTAA | -0.228
ATCAGAGA | -0.172

Sequence | PBM E-score
ACGCACCA | -0.0108
TACTATCA | -0.0737
GTTTCGCA | -0.0435
CATATACC | 0.137
GGGGCAGA | 0.0569
ACCCGCGT | 0.0669
CGATAGTA | 0.114
CTGTTTGC | -0.278
CTACATGA | -0.039
CGATTGAA | 0.0538
TAGCGCGA | -0.112
AGGCCACG | -0.104
AGCGTTAA | 0.0928
ACGTGTTA | -0.183
AGATAGCA | -0.115
AGAAGGAA | 0.0725
ATTGTTCA | -0.107
GACTTTAC | 0.0729
CTAGGCGA | -0.0634
ACGGGAAC | 0.205
ACCGAGAG | 0.0364
